Test results from ChEMBL document CHEMBL4888484, “Replenishing the malaria drug discovery pipeline: Screening and hit evaluation of the MMV Hit Generation Library 1 (HGL1) against asexual blood stage Plasmodium falciparum ,using a nano luciferase reporter read-out” (2022).
Several values for one entry are separate records, joined by “and”; a condition that tells them apart may be missing. Equal entries are not always repeated. In all, about 150,000 compounds went through this assay and about 540 (0.36%) showed an effect of 50% or more. This is one part of the list.

Tested on: Plasmodium falciparum
Assay: Primary screen in NF54 nanoGlo assay, in single point, at 2uM, 72h; a lower Z score goes with more inhibition
Assay type: functional, Erythrocyte
Details: timepoint 72 hour

Structure (SMILES)	% Inhibition [%]	Z score	% Inhibition (2 µM)
CCCN(CC1CC1)C(=O)[C@@H]1CN(S(=O)(=O)CC)C[C@H]1c1ccncc1	-14	1.39	
CC1(CC(F)(F)F)CN(C(=O)c2c[nH]nc2-c2ccoc2)C1	7	-0.82	
Cc1cnc(C(=O)NCc2cnoc2C)cn1	-2	0.25	
COc1cc(C)c(Br)cc1NC(=O)[C@@H](C(=O)O)C(C)C	-10	1.31	
Cc1ccc(C(=O)N[C@H]2CCCS(=O)(=O)C2)cc1Cl	-1	0.15	
COc1ccccc1OC1(C(=O)O)CCN(Cc2ccncc2)CC1	-8	1.04	
Cc1ccn2cc(C(=O)N3CCCC[C@@H]3Cn3cc(C)cn3)nc2c1	2	-0.44	
CO[C@H]1CCCN(C(=O)c2cccc(-c3ccc4c(c3)NC(=O)C4)c2)C1	-12	1.65	
Cc1c[nH]c([C@H](C)NC(=O)c2cnc(O)cn2)n1	-9	0.9	
O=C(NCCc1cccc(-c2ccccc2)c1)C1(n2cnnn2)CCOCC1	6	-0.84	
Cc1cc(F)c(S(=O)(=O)N(C)c2cccc3cccnc23)cc1C(=O)O	-10	1.18	
O=C(Nc1ccc(Cl)c(S(=O)(=O)Nc2ccc(Cl)cc2)c1)c1cnccn1	-7	1.31	
CCc1nc(C[C@H]2CN(c3ncnc4oc(C)nc34)CCO2)no1	-7	1.03	
O=C(NC1=NN2C(=NC(c3ccc(Cl)cc3)=C[C@H]2c2ccc(F)cc2)N1)c1ccc(Cl)cc1	48	-9.04	
O=C(Cc1c[nH]c2ccccc12)Nc1cccc(C(=O)N2CCC(O)CC2)c1	-13	1.64	
Cn1ncc2c(NC[C@H]3CCS(=O)(=O)C3)nc(-c3cccnc3)nc21	-15	1.91	
COc1ccc([C@@H](NC(=O)c2cccc3c2CCC3)C(=O)O)cc1Cl	-1	0.07	
OC[C@H]1CN(CCc2ccc(F)c(F)c2)C[C@@H]1C(F)(F)F	23	-3.01	
OCCn1nc(C2CC2)nc1-c1ccc(N2CCCC2)cc1	-16	1.69	
O=C(NCc1c[nH]c2ccccc12)[C@H]1CCc2[nH]cnc2C1	-13	2.26	
O=C1CN(c2ncnc3scc(-c4ccccc4)c23)CCN1	-15	2.07	
Cc1ccc(F)c(N2CCC[C@H](NC(=O)c3cnn(C)c3)C2=O)c1	-10	1.31	

Structure (SMILES)	% Inhibition [%]	Z score	% Inhibition (2 µM)
CCN1CC[C@@]2(CCC1=O)CN(c1nc3ccccc3s1)CCN2C	0	0.03	
CCCCc1nc2ccccc2c(NC(=O)CNC2CCCCC2)c1CCC			-20% and -4%
COC[C@](C)(CCO)NC(=O)c1cccc(Cl)c1F	7	-0.63	
Cc1nc(CN(C)C(=O)c2c[nH]c(C(F)(F)F)c2)no1	-9	1.48	
CCc1c(C)noc1NC(=O)c1ccn(C(F)F)n1	-12	1.9	
CN1N=C(C(=O)N2CCC[C@H]2c2cccc(F)c2)CCC1=O	-2	0.18	
O=C(c1ccco1)N1CCN(C2CCS(=O)(=O)CC2)CC1	17	-2.12	
C[C@H]1CC(Nc2ccc(Cl)cc2)=NC1(C)C	3	-0.53	
CC[C@@H](Cc1ccccc1)N(CC)C(=O)c1c[nH]c(C)cc1=O	4	-0.44	
Cc1cc2c(cc1-c1nc3c(cnn3C3CCCCC3)[nH]1)OCO2	-15	1.35	
C[C@H](NCCN(C)C1CCCCC1)c1ccncc1	3	-0.38	
CC(C)c1nc(CCNC(=O)c2ccsc2)no1	-6	0.95	
CCCCc1n[nH]c([C@@H](O)COc2ccccc2C)n1	-13	1.57	
Cc1noc(C)c1C(=O)NC[C@H]1Cn2cccc2CN1C	-2	0.41	
CC(C)CC1CC(NCc2cnn(C)c2)CCO1 (stereo not given)	-3	0.27	
NC(=O)NC(=O)CNc1cccc(C(F)(F)F)c1	0	-0.05	
CC[C@H]1CCCCN1Cc1cc(Cl)cc2c1OCOC2	5	-0.52	
COc1ccc(C(C)(C)C(=O)N(C)Cc2cn(C)nc2C(C)C)cc1	38	-1.19	
NCc1c(Br)ccc(Cl)c1F	-37	4.37	
CCN1CCN(CCCOc2ccc(F)cc2)C(=O)C1=O	-3	0.48	
CC[C@@H](c1ccncc1)N(C)C(=O)Nc1cc(F)c(N(C)C)c(F)c1	7	-1.13	
